Reference: the supplement of paper PMC11417369
± gives the standard deviation of the averaged measurements. This is one part of the list.

What follows are sequences tested on PfAP2-G AP2 domain (GST-tagged) (assay: gcPBM binding intensity (ln(normalized median fluorescence intensity)); higher = stronger DNA binding).
Summary of the method: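 Binding of GST-tagged P. falciparum DNA-binding domains, expressed in E. coli and used at about 25 μg on average, was carried out for 1 h in 1× PBS containing 1% milk, 0.2 mg/ml BSA, 0.5% salmon testes DNA and 0.03% Triton X-100. The target was an Agilent 4 × 180k array of primer-extended double-stranded 36-bp intergenic genomic probes plus negative controls, read with Alexa488 anti-GST antibody at 488 nm. Binding intensity is the highest Masliner-normalised natural-log median intensity across replicate spots of either probe orientation.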

Row | Sequence | gcPBM binding intensity (ln)
1 | TGTTATATATATACAAACATACACATTTATAAACAA [TGCATGCA_negctrl_site235] | 10.1 ± 0.19
2 | AGCATATATTAAACATGTACATAAATATATTATATA [XGTACX_site1451] | 11.3 ± 0.55
3 | GATTAAATCGATAATACACACTAAATGTAAAACATT [CACACA_site4248] | 10.01 ± 0.078
4 | TTGTATTATTAAATTATAAAACCTATAATTATGGAT [GTGCAC_negctrl_site340] | 9.68 ± 0.099
5 | TTATTTTTTTCAACAAGTACTAATACAAAATAAAAC [XGTACX_site6460] | 11.2 ± 0.83
6 | TAATGATTATATGACTGTACATTTGTAGGTATAATT [XGTACX_site3373] | 10.9 ± 0.65
7 | TGATAACTAAATACATGTACAAATTAAAAAGAAAAA [XGTACX_site3080] | 11 ± 0.55
8 | TATACGTAATAATATGCACACAAATAAACTTTATAA [CACACA_site9166] | 10.2 ± 0.12
9 | ACTAGTAAATTTATATGTACATATATATATATATAG [XGTACX_site2502] | 11.4 ± 0.78
10 | AAAAAAAATACATACATACACACATATATATATATA [CACACA_site912] | 9.98 ± 0.2
11 | TCTTGGTATATTCAATATATGATTTATATAATTCAA [CACACA_negctrl_site818] | 9.98 ± 0.2
12 | ATTTATATATATCATACACACTAATATGTATATTAT [CACACA_site5816] | 9.835 ± 0.007
13 | CATATTTATAAATATAAACACACAACATTATATGCA [CACACA_site9065] | 10.06 ± 0.064
14 | TTTAATTAATAATAATATAAATTGTTCTTTTTTTTT [GTGCAC_negctrl_site176] | 9.32 ± 0.17
15 | GCAAAATAAAGAAGCACACAAAAATGAAATATATAT [CACACA_site3651] | 9.985 ± 0.035
16 | TCAAACAAAAAAGAAACACACACTAATTAAATTTTC [CACACA_site1101] | 9.72 ± 0.33
17 | ACTCTCTTATATTAAACACACATATATATATGTATA [CACACA_site2703] | 10.1 ± 0.18
18 | AATAATTTGAAGGTGATAGTATTACATGGGAAATCA [CACACA_negctrl_site301] | 10.08 ± 0.014
19 | GTACATATAAATATTACACACATTTTCATTTTTAAC [CACACA_site1986] | 10.8 ± 0.35
20 | AAATCGAACAAATTATGTACTAAAAAAAAAATTTAT [XGTACX_site6399] | 11.2 ± 0.67
21 | GTGTAGGCAAAAAGTTGTACGCCTAAAATCTATATA [XGTACX_site8912] | 11.7 ± 1.1
22 | TGTATAGGTACAATAATTATAGAGTAATTGACATTA [GTGCAC_negctrl_site183] | 10.9 ± 0.67

Row | Sequence | gcPBM binding intensity (ln)
23 | TAAAAAGTATATGGTCGTACACTTTTGATTAATACA [XGTACX_site7804] | 11.5 ± 0.76
24 | TTATATGCATCCAAAAAGGAATGTTTTTAGAGAATC [CACACA_negctrl_site1062] | 9.78 ± 0.099
25 | ATCTTTCGAACATGTACACACAGAAAAAAAAAAAAA [CACACA_site5393] | 11.3 ± 1
26 | ATACACAAATGCATACGTACATATATATATATATAT [XGTACX_site3504] | 11.4 ± 0.79
27 | CATATAAGAATCTTCTGTACTTATAAGAAAAGACAT [XGTACX_site8135] | 11.4 ± 0.87
28 | AAAAAAAAAAAAACAACACACAATGTTTTATTTTAC [CACACA_site1613] | 9.905 ± 0.021
29 | TAAAACAAAATAACATGTACAAAAAAAAAAAAAAAA [XGTACX_site2915] | 10.9 ± 0.83
30 | ATGTAATATGTTCATGCATGTAAAATTACATTTAGA [TGCATGCA_site852] | 9.89 ± 0.11
31 | AAAAAAAAATTAAAAACACACATATATATATATATA [CACACA_site1580] | 9.9 ± 0.67
32 | ATATCTATAATAAACACACAAATAGATATAACATAT [CACACA_site7702] | 10.02 ± 0.035
33 | TATATATATATATATGTGCACATTTATTGCCTTTGC | 10.4 ± 0.45
34 | TATAAATAAAGACTTTTTTCTAACTTTTTTTTGTAT [CACACA_negctrl_site1015] | 9.64 ± 0.32
35 | TAAGTATATTTCTGCACACAAAAAAAAAAACCAAAA [CACACA_site4056] | 10.3 ± 0.3
36 | AAAATTTAATATGAATGTACATAAAAAAAAAAAAAA [XGTACX_site6719] | 11 ± 0.89
37 | ATTTAGTATTCGAAACGTACACATATATATATATAT [XGTACX_site3910] | 11.4 ± 1.1
38 | ATATATAATATAATATGTACATATAATCAATCCTGT [XGTACX_site8694] | 11.2 ± 0.73
39 | TGTAATCTGGAGAAGAGTACACAGTATCTGGTAGCT [XGTACX_site4935] | 11.3 ± 0.83
40 | ATATTTTTTTTCTTCACACACATGAGTTATAAATAA [CACACA_site7498] | 10.2 ± 0.24
41 | AATGAAACAATACCCAGTAAAAAAAAAAAATAAATA [TGCATGCA_negctrl_site205] | 9.93 ± 0.36
42 | ATTATAATTTTGTAAAGTACATATTATTATATATTA [XGTACX_site7191] | 11 ± 0.73
43 | AAGATAATTACGCACACACACACACGCCCACAACTA [CACACA_site7255] | 10.8 ± 0.49
44 | TATTTATATAATCCTATAATATTACTACTATCTTTA [GTGCAC_negctrl_site342] | 9.77 ± 0.014

Row | Sequence | gcPBM binding intensity (ln)
45 | TAATATTTATATAATTGTACTTTGTTTGTAAATCCA [XGTACX_site7292] | 11 ± 0.69
46 | AAGGTAAAATATAAGTGTACTTTTTCTTAATCTTCG [XGTACX_site514] | 11.5 ± 0.89
47 | ACAGTTTGTCTGAGTAGTACATAAATACTTGAAAGG [XGTACX_site7792] | 11.4 ± 0.79
48 | AGAAGGATATTATGAAGTACACATATTGTATATGGT [XGTACX_site7503] | 11.5 ± 0.87
49 | TAGTAAAATGGAACACGTACATATATCTATGTATAA [XGTACX_site6103] | 11.4 ± 0.81
50 | CATATAAGACAAAAGGTGCAATTTTAATGCTTTTAT [GTGCAC_site9432] | 9.77 ± 0.3
51 | AACCCTTTTGATTTTTCTTTTTTTTTTTTTTTAAAT [CACACA_negctrl_site1667] | 9.49 ± 0.37
52 | TTTTTAAAAAAAAATAGAGAGTCAAAGTATGTGGCG [CACACA_negctrl_site194] | 10.2 ± 0.14
53 | TTTCTCTTTTTTTGGGGTACAACCAATCCTATAATA [XGTACX_site297] | 11.6 ± 0.87
54 | ATACATATATATATATGTACATATATTTATATTTAT [XGTACX_site3155] | 11.1 ± 0.7
55 | TAATTCAAACGTGTATGTATATTACTCGAAGAAATA [CACACA_negctrl_site1779] | 9.96 ± 0.16
56 | TTTCAAGGATTTAATTTATGGAAACCTTCTTCATTT [GTGCAC_negctrl_site504] | 9.87 ± 0.11
57 | CCATATATAATGACATGTACTCAAAAAAAAAAAAAA [XGTACX_site685] | 11.3 ± 1
58 | TAGAAAAAAAAATACATACACACAATATATTTATTT [CACACA_site3123] | 9.66 ± 0.26
59 | AAGTTCAAAATAAATGGTACAGAAGTATATATATCA [XGTACX_site174] | 10.9 ± 0.46
60 | TAAAAAAAGAGATATTGTACACAAAAAAATTTTACT [XGTACX_site1342] | 11.4 ± 0.76
61 | AAAATCTAGGTATTTATACACACTAATATAATATAC [CACACA_site8108] | 10.2 ± 0.28
62 | TATATATTTGTGAAAATATTAAAATAAATAAATAAA [CACACA_negctrl_site295] | 9.76 ± 0.042
63 | GTACCAACAGCACTACTTCTCGCCATTTTCTTGTAG [XGTACX_negctrl_site97] | 10.5 ± 0.28
64 | GAGAGGATAGTTCACAGTACCCAGTAACTCTACGGA [XGTACX_site4876] | 10.7 ± 0.48
65 | ATAAATATAACATATTGTACCCTTAAAAAGGAACAA [XGTACX_site352] | 11.7 ± 0.96
66 | AAATGTATAATTTTTTAATACACTTATTTAAAATAA [CACACA_negctrl_site797] | 10.1 ± 0.2

Row | Sequence | gcPBM binding intensity (ln)
67 | TCTTACACTAATAAATGTACATACAAAAAATCTATT [XGTACX_site1379] | 11.2 ± 0.76
68 | TACCCACTAAAATACACACACACACCCACATATATA [CACACA_site6141] | 10.3 ± 0.33
69 | AATTTGAATATTTGATGTACAAAGTTTTTTAATGTT [XGTACX_site3249] | 10.9 ± 0.63
70 | ATATGAATGATCGTACGTACTTACATATTTATAAAG [XGTACX_site8041] | 11.5 ± 0.93
71 | CAGAATACATACATTACACACAAATTTAAGTATATA [CACACA_site1781] | 9.96 ± 0.16
72 | CTCAAATAACTTTTTACACACATTATTTGAAATAAG [CACACA_site6722] | 10.1 ± 0.18
73 | ACAAATAAAAAAATTACACACATATAAAATATAGAT [CACACA_site6756] | 9.925 ± 0.021
74 | TATGAGAACAAACATTGTACAATAAAAAGTAGATAT [XGTACX_site920] | 11.2 ± 0.35
75 | AGGAAAATAATTAAAGCATGCTCATTATGAAATATA [TGCATGCA_site855] | 9.64 ± 0.24
76 | AATACATGAACTTAAAGTACTAAAAAAAAAATAATA [XGTACX_site1956] | 11 ± 0.52
77 | TCACATATTATCTTTACACACTATATATAAGTTTTA [CACACA_site2790] | 9.925 ± 0.007
78 | TCATGTTTTACAAAAACACACAAATGAATATAAACC [CACACA_site1161] | 10.2 ± 0.13
79 | TGTACATAAATCTAATTATTATATGTGTATATATAT [CACACA_negctrl_site1582] | 10.5 ± 0.28
80 | AGTACAGACATAGACACACACACACCCATAAAAAAA [CACACA_site1515] | 10.4 ± 0.25
81 | TTAAGATAGCAAATATGTACACATTTGTAAAATAAA [XGTACX_site4837] | 11.5 ± 0.94
82 | TTAAAAATAAAAAATACACACTCTAGTCCATGTAAC [CACACA_site3640] | 10.24 ± 0.057
83 | ATTTCATATAGTGTAGTGCAATTTTAAGCATCAAGG | 10.2 ± 0.26
84 | ATGTCATTATATACATGTACGCATATCTGTTTATCC [XGTACX_site3947] | 11.6 ± 1.1
85 | CCTATAATAAATAATACACACATATTGTAAATATAT [CACACA_site7496] | 10 ± 0.071
86 | TTTTTTTTTATAAGGTGTACGTAAAATGTGTAGGTC [XGTACX_site3585] | 11.6 ± 0.82
87 | AATATAATAATAAAAACACACACGTTGATTGTATTA [CACACA_site2381] | 9.74 ± 0.16
88 | TAAAAATTCAATTGCACACGCACATATTTTAATAAG [CACACA_site2014] | 10.05 ± 0.057
